# Source: article PMC6919601, “Identification of Plasmodium dipeptidyl aminopeptidase allosteric inhibitors by high throughput screening” (PLoS ONE, 2019)
# Hit rate of the full screen: of about 110,000 compounds, about 230 (0.21%) showed an effect of 50% or more. The list shows a part of the results.
# Biological target: DPAP1 (Plasmodium falciparum, UniProt Q8IIJ9)
# Assay: primary screen, percent inhibition; read by cleavage of a fluorogenic dipeptide substrate; higher = more effect of the substance
# Parameters: species or system P. falciparum D10 trophozoite lysates; single well
# 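Further: 30 min substrate incubation versus DMSO and 10 µM JCP410 controls.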
# Chain of DPAP1 (Q8IIJ9 whole entry, looked up): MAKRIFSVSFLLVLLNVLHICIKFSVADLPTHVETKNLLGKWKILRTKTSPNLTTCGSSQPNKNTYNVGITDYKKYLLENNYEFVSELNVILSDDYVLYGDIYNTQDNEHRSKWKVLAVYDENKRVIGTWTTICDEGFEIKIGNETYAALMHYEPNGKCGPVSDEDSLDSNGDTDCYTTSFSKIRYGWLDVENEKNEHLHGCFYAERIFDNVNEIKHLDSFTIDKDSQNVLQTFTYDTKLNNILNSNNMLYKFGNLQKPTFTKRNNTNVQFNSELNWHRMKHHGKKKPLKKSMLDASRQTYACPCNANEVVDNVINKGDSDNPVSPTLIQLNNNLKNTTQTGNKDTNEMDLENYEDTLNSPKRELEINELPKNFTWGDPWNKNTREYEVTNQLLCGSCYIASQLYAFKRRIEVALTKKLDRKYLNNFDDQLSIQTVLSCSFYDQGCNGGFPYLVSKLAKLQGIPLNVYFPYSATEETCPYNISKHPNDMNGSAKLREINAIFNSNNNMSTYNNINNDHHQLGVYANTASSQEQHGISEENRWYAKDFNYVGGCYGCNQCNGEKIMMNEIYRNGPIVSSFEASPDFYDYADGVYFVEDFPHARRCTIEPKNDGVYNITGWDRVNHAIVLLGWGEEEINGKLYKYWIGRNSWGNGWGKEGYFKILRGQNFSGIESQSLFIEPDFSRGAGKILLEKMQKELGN
row,Structure (SMILES),% Inhibition @ 10 uM
1,CCC(Sc1nncn2c1cc1sccc12)C(=O)N1CCOCC1 (stereo not drawn),5.18%
2,CC1=NN(c2nc3ccccc3[nH]2)C(=O)C1Cc1ccccc1 (stereo not drawn),0.221%
3,CCOCCCNC(=O)Cn1cc2c(n1)CCCC2,4.95%
4,N#CC1=C(N)OC2=C(C(=O)CCC2)C1c1cccc(OCc2ccccc2)c1 (stereo not drawn),-1.98%
5,COc1cccc(-c2nn(C)c3sc(C(=O)N4CCC(N5CCCCC5)CC4)cc23)c1,-0.499%
6,Cc1ccc2c(c1)-c1c(cnn1CC(=O)NCCCN1CCCC1=O)CO2,-6.42%
7,COCCn1cc(C(=O)N2CCCCCC2)c2c3ccccc3n(C)c2c1=O,-7.85%
8,COc1ccc(-c2noc(NCc3cccc(Cl)c3)n2)cc1OC,12%
9,CC(=O)NC1=NN(C(C)=O)C(c2ccc(N(C)C)cc2)S1 (stereo not drawn),1.63%
10,Cc1[nH]c2ccccc2c1CCNC(=S)NCCc1ccccc1,4.41%
11,O=C(NCCNC(=O)c1nc(-c2ccc(F)cc2)no1)c1ccc(Br)o1,-5.17%
12,C=C(C)CN(CC)Cc1coc2ccc(C)cc2c1=O,-1.64%
13,O=S(=O)(c1ccc(-c2ccc(O)nn2)o1)N1CCN(C(c2ccccc2)c2ccccc2)CC1,-2.74%
14,CCOC(=O)c1c(NC(=O)CC(NC(=O)c2ccccc2)c2ccccc2)sc2c1CCCC2 (stereo not drawn),-4.7%
15,COC(F)(C(=O)Nc1ccccc1C(C)C)C(F)(F)F (stereo not drawn),-3.68%
16,CC(=O)N1CCN(c2ccc(NCc3ccc(Br)cc3)cc2)CC1,11.6%
17,O=C(OCc1ccccn1)c1cccc(COc2ccccc2Cl)c1,-3.13%
18,CCc1nc(C)cn1S(=O)(=O)c1ccc(Br)c(OC)c1,3.91%
19,O=C(N/C(=C\C=C/c1ccccc1)C(=O)N1CCCCC1)c1ccc(Br)o1,1.13%
20,CC(C)NC(C)C(=O)c1ccc2c(c1)CCCC2 (stereo not drawn),-2%
21,Cc1cc(-c2ccc(S(=O)(=O)NC3CCCCCC3)cc2)on1,-3.1%
22,COCCNC(=O)C1CCCN(c2nn3cc(-c4ccc(F)cc4)nc3s2)C1 (stereo not drawn),4.43%

row,Structure (SMILES),% Inhibition @ 10 uM
1,CC1=NN2C(=N)/C(=C\c3cccn3-c3ccc4ccccc4c3)C(=O)N=C2S1,-3.35%
2,CC(=O)c1cc2c(=O)n3c(nc2nc1O)CCC3,2.23%
3,C=Cc1ccc(Cn2c(C(=O)O)c(CNCCc3ccccc3Cl)c3ccc(C)cc32)cc1,-0.177%
4,COCCNC(=O)CN1C(=O)CSc2ncccc21,1.03%
5,CCOC(=O)N1CCN(c2c(NCCOC)c(=O)c2=O)CC1,-8.92%
6,CCOc1ccc(-n2cc(-c3ccccc3)c3c(N4CC(C)OC(C)C4)ncnc32)cc1 (stereo not drawn),10.9%
7,COc1ccc(Nc2ccccc2C(=O)O)cc1,5.01%
8,N#CCNC(=O)C(CC(Cl)Cl)NC(=O)OCc1ccccc1 (stereo not drawn),-0.207%
9,CC1=C(C(=O)Nc2cccc(F)c2)C(c2ccc(Cl)c(Cl)c2)NC(S)=N1 (stereo not drawn),5.16%
10,CCN(CCO)c1ncnc2onc(-c3ccc(F)cc3)c12,-0.887%
11,CC1CCCN(C(=O)CN(C)S(=O)(=O)c2cccc3nsnc23)C1 (stereo not drawn),3.43%
12,CCOC(=O)c1c(S(=O)(=O)N2CCN(C(c3ccccc3)c3ccccc3)CC2)c(C)n(C)c1C,5.41%
13,Cc1cc(-c2noc(CCc3ccccc3)n2)c2ccccc2n1,-4.04%
14,O=C(NC1(C(F)(F)F)C(=O)Nc2c1c(=O)[nH]c(=O)n2-c1ccccc1)c1ccc(Cl)cc1Cl (stereo not drawn),-5.23%
15,CC(C)OCC(O)CSCc1ccc(Cl)cc1 (stereo not drawn),4.84%
16,CCN(CC)C(=O)CN(Cc1ccccc1)S(C)(=O)=O,-4.91%
17,O=C(Nc1ccccc1C#Cc1ccccc1)c1ccco1,-4.75%
18,O=C1S/C(=C\c2ccc(N3CCOCC3)o2)C(=O)N1Cc1ccc(F)cc1,6.58%
19,CCOP(=O)(OCC)C(Nc1ccccc1)c1ccccc1 (stereo not drawn),5.77%
20,CC(CCc1ccccc1)NC(=O)c1ccncc1 (stereo not drawn),3.21%
21,COC(=O)C1=CN(Cc2ccccc2)C=C(C(=O)OC)C1c1ccc2c(c1)OCO2,-1.1%
22,CCOc1ccc(C(=O)Nc2cc(C)ccc2C)cc1,-9.68%

row,Structure (SMILES),% Inhibition @ 10 uM
1,COc1ccc(Cl)cc1N(CC(=O)NC(C)(C)C)S(C)(=O)=O,3.66%
2,CC1(C)CC2c3cccc(C(=O)O)c3C(=O)N2c2c1ccc1ccccc21 (stereo not drawn),-8.36%
3,CN(Cc1ccccc1)c1nnc(NC(=O)NC2CCCC2)s1,0.623%
4,CCOC(=O)CNc1ccc(Cl)cc1C,-1.22%
5,Cc1ccc(C2CC(=O)NC(SCC(=O)Nc3ccc(Cl)c(Cl)c3)=C2C#N)cc1 (stereo not drawn),-2.16%
6,CCOC(=O)Nc1cccnc1Sc1ccc(Cl)cc1,1.01%
7,COc1ccc(NC(=O)c2ccccc2F)cc1Cl,-2.18%
8,CCc1nnc(NC(=O)c2cc3c(Cl)nc4ccccc4c3s2)s1,-3.99%
9,COc1ccccc1-c1nn2c(-c3ccccc3)nnc2s1,-5.38%
10,O=C(Nc1cccnc1Cl)c1cc(-c2ccccc2O)on1,-10%
11,COc1ccccc1CN1CCN(Cc2ccc(OC)c(OC)c2)CC1,-0.622%
12,COc1ccc(Br)cc1C1CC(=O)Nc2c1c(=O)nc(SCc1ccccc1)n2C (stereo not drawn),27.5%
13,O=S(=O)(NCC1CCN(S(=O)(=O)c2ccc(Cl)cc2)CC1)c1ccc(Cl)cc1,3.67%
14,COc1cccc(NC(=O)CCCC(=O)O)c1,-4.35%
15,O=C(CCN1C(=O)C2C3C=CC(C3)C2C1=O)NCCc1ccccc1Cl (stereo not drawn),3.61%
16,CCn1nc(C)c2c(C(F)(F)C(F)(F)F)cc(=O)n(CC(=O)N3CCCCC3)c21,9.97%
17,FC(F)(F)c1ccccc1CN1CCc2c([nH]c3ccccc23)C1,7.59%
18,COc1ccccc1C1(O)CC2CCC(C1)N2c1nccc(C)n1 (stereo not drawn),-6.81%
19,O=C(O)CS(=O)(=O)CC(=O)O,1.32%
20,N#CC1=C(SCC(=O)Nc2ccc(Br)cc2)NC(=O)CC1c1ccc(F)cc1 (stereo not drawn),3.46%
21,CC1CCN(C(=O)C2c3ccccc3Oc3ccccc32)CC1,4.49%
22,Cc1ccc(Cl)cc1N1CCN(C(=O)C2CCN(S(C)(=O)=O)CC2)CC1,-2.6%
